# Assay results from PMC12136788.
# The other results are listed elsewhere or left out.
# T1: UNK ZnF1-3 (human, UniProt Q9C0B0 31-174)
# T1 sequence: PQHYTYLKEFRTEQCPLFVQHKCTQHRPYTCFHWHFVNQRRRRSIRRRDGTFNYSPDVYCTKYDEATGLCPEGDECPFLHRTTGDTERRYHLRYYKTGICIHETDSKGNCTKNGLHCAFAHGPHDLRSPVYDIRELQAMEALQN
# B1: chr14:58718896:58718897:+_ENSG00000100567_ENST00000216455|hu_mus|FALSE|FALSE (ssRNA)
# RNA: GGGAGUUCUACAGUCCGACGAUCUCGAUCAACAUUAAAAAGACGUUUAUUGGAGCCUUCUUCAUAAAGUUUAGAAAGGACUAGUUUUUCUACCCCAAACACAACACCAUCUUUACAUCUGAUCCCAAUAGCUGUACUACUGUUCAACAGAGGAUUGAGCAUCA
# B2: chr7:54823571:54823572:-_ENSG00000132432_ENST00000352861|hu_mus|hu_hu_hu_mus_False|1_1 (ssRNA)
# RNA: GGGAGUUCUACAGUCCGACGAUCUCCCAUGAUAGCAAAUCCUAUAGCUGUAGCCAUGGCAAUCUUCUGGAAUUCUUUUCUGUCGGGUUUGGUGCAUCUUUUAACCAGCCGAAUUGAGUCCUUUACAAACUGCCGGCUUGGCUCCAACAGAGGAUUGAGCAUCA
# B3: chr5:159492046:159492047:+_ENSG00000113312_ENST00000231238|hu_mus|FALSE|FALSE (ssRNA)
# RNA: GGGAGUUCUACAGUCCGACGAUCCCCAGUCAGCCUUUAAGACUGUUAUUUCUGUUAUCUAUUAUUAUUCGGAUUUUGAACAAAAUUGAUGGAGUAGGAGCCAGUAGAAGAAUCCUGCUUGAUCUGGAAAUUUUCUGUGGAGAGCAACAGAGGAUUGAGCAUCA
# B4: chr7:54825262:54825263:-_ENSG00000132432_ENST00000352861|hu_hu|hu_hu_hu_mus_False|8_48 (ssRNA)
# RNA: GGGAGUUCUACAGUCCGACGAUCCUGCCGGCUGGGCUCCACAAACUGCAUUACCUGAUCCAUGUUUGUUGGAUGGCGGAUUGAGAGUGCCAGGGACCGUAGCUCAGGAGAGAACCGAGCCCAACGGCACCGGAACCUGGCAACCAACAGAGGAUUGAGCAUCA
# B5: chr4:39739082:39739083:+_ENSG00000078140_ENST00000261427|perfect_dup|motif|central (ssRNA)
# RNA: GGGAGUUCUACAGUCCGACGAUCUAUUUUUAUCUCUAGUUGAUAUCUUCCACCUUCAUACGGUGUGUCUGGAGGUCCUGCGGUUUCUCCUCUUAAUUCUGUAAAAUUCUCAUCUACAAGAUCUACUUUAAUUUGAUUUUUGCUCAACAGAGGAUUGAGCAUCA
# B6: 98571650_98572089_1718_CDS_ENSMUSG00000017210_ENSMUST00000017354|mouse|control|control (ssRNA)
# RNA: GGGAGUUCUACAGUCCGACGAUCAGGGCGGAAGCAGGGAUGGUCAGGGUUCAAAAUCUUGCCCUCCUCGGGCAUGCAGGUCUGCAUCCAAGUCUCAAAGAAGGGGACUUCUUCUCCUGAGCUCGACUCCGAGAGGAUCACCUCCAACAGAGGAUUGAGCAUCA
# B7: chr9:101992667:101992668:+_ENSG00000106803_ENST00000223641|hu_mus|FALSE|FALSE (ssRNA)
# RNA: GGGAGUUCUACAGUCCGACGAUCAGAUGGAUGUAGCCCAAUCUAUGAUCGCGUGUACUUGCCCCAAAUGUGCAGCAUAAAUACAGCAGCGAUGAACAGAAGACUCAUCACCAGCACUGGGACAGGGCCCACUUUGAGCCCUGGCAACAGAGGAUUGAGCAUCA
# B8: 53113633_53113753_266_3pUTR_ENSMUSG00000020361_ENSMUST00000020630|mouse|control|control (ssRNA)
# RNA: GGGAGUUCUACAGUCCGACGAUCCUCUGAAAGCCCAGGUCUAUGCCCACCACCGACAUGGCGCCGGCUACUGCUCCGGCUCGGGCCCAGGGCCGGCCGCCGACACUGCACACGGAACCCGGCGGGGUUGGCGCGUGGAAGAGGCAACAGAGGAUUGAGCAUCA
# B9: chr1:225611761:225611762:-_ENSG00000143815_ENST00000272163|hu_mus|hu_hu_hu_mus_True|28_28 (ssRNA)
# RNA: GGGAGUUCUACAGUCCGACGAUCCCAGGCCAUCGGCCUCUGACCACUUCACCCUCAACAAACUUCCUACUUGGCAUUUUCUAAAAUUAGUCUGGCCGCGCUCCGGCCGGUGACACGGCCACUCCAGGACAGUCACCAGCAGCCCAACAGAGGAUUGAGCAUCA
# B10: chr7:112906983:112906984:-_ENSMUSG00000036862_ENSMUST00000078482|mus_hu|motif|central (ssRNA)
# RNA: GGGAGUUCUACAGUCCGACGAUCGGGGGAGACAAUAGGAGUCCCUGGGGGCGCAUUCUCACGAAUCGUAGCCUCACUGCGGGCCCGGGGAAAGCGGGGUCCACGCUCAGCUUCCCCCUGCAGUCCAACAAUGAUCACACCAGUCAACAGAGGAUUGAGCAUCA
# B11: chr2:17897474:17897475:-_ENSG00000163029_ENST00000351948|hu_mus|motif|central (ssRNA)
# RNA: GGGAGUUCUACAGUCCGACGAUCUAUUGCUUCCAGAAGAGCUGGAACAUGAGGACCAAAUCUUUUUAGUCGAUCAGUUUUACGGUCUUUCAGUUCUUUCAAUUGUCUCUGAUUAUAGUUGAGUGCAUGUCUCACUUCUAUAUCCAACAGAGGAUUGAGCAUCA
# B12: chr4:25749455:25749456:-_ENSG00000091490_ENST00000264868|hu_hu|hu_hu_hu_mus_False|98_98 (ssRNA)
# RNA: GGGAGUUCUACAGUCCGACGAUCGCACUAUGACCUCCCCUAGAAAACACAGGGGGAAAAAAUGUAAACCAAUGUACAAUGUUAUCGCCUUCCCUGUGUGUGGAGUGUUUGUCUCAAGGCUCCUUCUAGCUGCUGGAUUUGGGACAACAGAGGAUUGAGCAUCA
# B13: chr3:179052105:179052106:+_ENSG00000121864_ENST00000484866|hu_hu|motif|central (ssRNA)
# RNA: GGGAGUUCUACAGUCCGACGAUCUCCAAACCUCAUCAAGCAGUCACUACAUUUAUGAGGCAAGUCAGCUGAAUGCUUGAAAUCGGGAUGAAUUUUAAGAUCUUCAAUUUGUCCUGUUGAAUAUUCACAAUAUUGACAUAAAUACAACAGAGGAUUGAGCAUCA
# B14: 114262867_114262987_1014_CDS_ENSG00000145362_ENST00000514960|human|control|control (ssRNA)
# RNA: GGGAGUUCUACAGUCCGACGAUCCACCUCAACCUGGCUUCAAUGGGGUCAUGUGAUUUGGCAAACACUACAAAUUUGGCCAUAUAAGGUACGCAGAUAAUUUCUCUGUAUACUUGUGAUGCAAAAGUAACGGAUUCCUGGAUCCAACAGAGGAUUGAGCAUCA
# B15: 150229297_150239220_176_5pUTR_ENSMUSG00000028967_ENSMUST00000030811|mouse|control|control (ssRNA)
# RNA: GGGAGUUCUACAGUCCGACGAUCCCCAGGUGUUUUUAAGUCAACCAGUAGCUUUCAUUCCCCCAAGGGAGCGGGACCCCGCGGCGCCCUCCCGCGCAUGUCCGUCCCGGCUGGCUCAGCGCCGCGGGCUUAGGGGCCCGAGCACAACAGAGGAUUGAGCAUCA
# B16: chr17:60770872:60770873:+_ENSG00000011028_ENST00000303375|hu_hu|hu_hu_hu_mus_True|98_108 (ssRNA)
# RNA: GGGAGUUCUACAGUCCGACGAUCUCUCUUUUCUUUUUUCCUUUUUUACAAACAAUAAUAGCACAUUUCGAGAAUCAAGAACUACAAUAGAGGGUCCGCUUUGAGUUUUUGUUCACAUCGUCCUGCACUGGGACACGGGGACUGCAACAGAGGAUUGAGCAUCA
# B17: chr17:64801638:64801639:+_ENSG00000154229_ENST00000413366|hu_mus|hu_hu_hu_mus_False|8_78 (ssRNA)
# RNA: GGGAGUUCUACAGUCCGACGAUCUAUAUAUAUAUAUACAUAUGUACACAUAUAUAGUAAGAGCCUAGUUAAACGUGUAAAGUAGCCAUUCAUUUUUAAAAUUACAUCUACAUUAAAAAAUUAAUAUAUCUGAUACAGUGCCAGCAACAGAGGAUUGAGCAUCA
# B18: 111714083_111714203_6032_ncRNA_ENSMUSG00000033209_ENSMUST00000156290|mouse|control|control (ssRNA)
# RNA: GGGAGUUCUACAGUCCGACGAUCUCAUGGAGGAGGCGAUUGAGCUGAGACUGUACACAGAAAUGGCGUCGGAGGCAAUGCUGUCUGCGCCCGUGGGCGAGAAAGGAGGGUGCUGGUAGCCCAAGGGCAGAGCGUUGGACACAGCAACAGAGGAUUGAGCAUCA
# B19: 6085032_6085152_820_3pUTR_ENSMUSG00000034345_ENSMUST00000039487|mouse|control|control (ssRNA)
# RNA: GGGAGUUCUACAGUCCGACGAUCAUACCCAGGGUAAAAGGAUAAUUUAACCAAACUCCAUUAUUUUUCUGGUGUAUUUAAUUGGUUCUAAGAAGGUAGGAAAAACAUUUAUGAUUUCAUUUUCUUAUAUUUCCGUAUUUGUGUCAACAGAGGAUUGAGCAUCA
# B20: chr3:9412954:9412955:+_ENSG00000134077_ENST00000452837|hu_mus|hu_hu_hu_mus_False|38_38 (ssRNA)
# RNA: GGGAGUUCUACAGUCCGACGAUCGGUUGAUAUCUCUUCUUUGAUGGCUGGAUUUUCAUAAUAGUCCAAGAUAUGUGAAUCUGAAGUGCUGCUGGCAAACUCUUUUUUACCAUCUUUCUCAUCUGCUUUGUCUCCUUGUCCACACAACAGAGGAUUGAGCAUCA
# B21: chr1:171751117:171751118:+_ENSG00000010165_ENST00000361735|hu_mus|FALSE|FALSE (ssRNA)
# RNA: GGGAGUUCUACAGUCCGACGAUCCUUGGAGCUUUUAGGUAGGAGAUUCAUGUUCCCACCGUGAGCGGCGUCUUCGACACUGCUCCUGGUGACAGAUCACCCCGGGAAGCACCGGGAGGCAGCAGCGGCGGGAAUCUUAGCCACCAACAGAGGAUUGAGCAUCA
# B22: chr1:151374018:151374019:+_ENSG00000159377_ENST00000290541|hu_hu|FALSE|FALSE (ssRNA)
# RNA: GGGAGUUCUACAGUCCGACGAUCAAAGCCACUGAUCAUGUGGGCAAUAUCCCAGUUGGUCUCUGUAGACAAUGGUCCCUCUAUUUCAACACCUUUUUCGGUGACAGUGGCGAUUUGAAACCGGUUGUAAGAACGGGCAUCUCGCAACAGAGGAUUGAGCAUCA
# Target: T1, UNK ZnF1-3
# Assay: nsRBNS (natural sequence RNA bind-n-seq); RBNS binding buffer (assumed for nsRBNS): 25 mM Tris pH 7.5, 150 mM KCl, 3 mM MgCl2, 0.01% Triton X-100, 500 ug/ml BSA, 20 U/ml SUPERase-In, 4 C; UNK is unkempt and MSI1 is Musashi-1; names of the RNAs are library labels; protein concentration not given here; high values mean tight binding
row,Binder,binding signal
1,B1,0.942 enrichment R
2,B2,0.771 enrichment R
3,B3,1.38 enrichment R
4,B4,1.28 enrichment R
5,B5,0.313 enrichment R
6,B6,1.14 enrichment R
7,B7,1.43 enrichment R
8,B8,0.801 enrichment R
9,B9,1.09 enrichment R
10,B10,0.563 enrichment R
11,B11,0.599 enrichment R
12,B12,1.23 enrichment R
13,B13,1.12 enrichment R
14,B14,1.12 enrichment R
15,B15,0.794 enrichment R
16,B16,0.86 enrichment R
17,B17,1.84 enrichment R
18,B18,2.21 enrichment R
19,B19,1.05 enrichment R
20,B20,0.342 enrichment R
21,B21,1.02 enrichment R
22,B22,0.94 enrichment R
